± gives the standard deviation of the averaged measurements. Restriction of a single-cycle SIVsab GFP reporter by TRIM5α v1-loop variants in CRFK cells. Human variants: read share among cells still uninfected after two challenges over input, higher = gained restriction. Rhesus variants: share among infected cells over input, higher = lost restriction. Reporter dose not given per row. No active / inactive call per row; the paper calls a change when both replicates lie above its controls (mean + 2 SD of stop or wild-type variants, or the top frameshift score). Residues outside the varied loop are taken from Swiss-Prot. The paper reads the human single-substitution scores as noise; they and the rhesus combinations repeat poorly (rank correlation 0.3 to 0.4), indel scores repeat only for the top variants, rhesus substitutions well (0.9).
Tested on: SIVsab (simian immunodeficiency virus of sabaeus monkeys), single-cycle GFP reporter, in CRFK cells
Test: enrichment among uninfected cells over input (fold); higher = stronger restriction
Settings: library: human / rhesus combinations
Description: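 Pools of CRFK cells expressing variants of the TRIM5α v1 loop were challenged with the single-cycle reporter, sorted by GFP and sequenced; mean of two replicates.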

Sequence	enrichment
MASGILVNVKEEVTCPICLELLTQPLSLDCGHSFCQACLTANHKKSMLDKGESSCPVCRISYQPENIRPNRHVANIVEKLREVKLSPEGQKVDHCARHGEKLLLFCQEDGKVICWLCERSQEHRGHHTFLTEEVAREYQVKLQAALEMLRQKQQEAEELEADIREEKASWKTQIQYDKTNVLADFEQLRDILDWEESNELQNLEKEEEDILKSLTNSETEMVQQTQSLRELISDLEHRLQGSVMELLQGVDGVIKRTENVTLKKPETFPKNQRRVFRAPDLKGMLEVFRELTDVRRYWVDVTVAPNNISCAVISEDKRQVSSPKPQIIYQARGTRFTFPSFVNFNYCTGILGSQSITSGKHYWEVDVSKKTAWILGVCAGFQPDAMCNIEKNENYQPKYGYWVIGLEEGVKCSAFQDSSFHTPSVPFIVPLSVIICPDRVGVFLDYEACTVSFFNITNHGFLIYKFSHCSFSQPVFPYLNPRKCGVPMTLCSPSS [human TRIM5α, 330-340 = QARGTRFTFPSFV]	0.0841 ± 0.013
MASGILVNVKEEVTCPICLELLTQPLSLDCGHSFCQACLTANHKKSMLDKGESSCPVCRISYQPENIRPNRHVANIVEKLREVKLSPEGQKVDHCARHGEKLLLFCQEDGKVICWLCERSQEHRGHHTFLTEEVAREYQVKLQAALEMLRQKQQEAEELEADIREEKASWKTQIQYDKTNVLADFEQLRDILDWEESNELQNLEKEEEDILKSLTNSETEMVQQTQSLRELISDLEHRLQGSVMELLQGVDGVIKRTENVTLKKPETFPKNQRRVFRAPDLKGMLEVFRELTDVRRYWVDVTVAPNNISCAVISEDKRQVSSPKPQIIYGAPGTRFTFQSFTNFNYCTGILGSQSITSGKHYWEVDVSKKTAWILGVCAGFQPDAMCNIEKNENYQPKYGYWVIGLEEGVKCSAFQDSSFHTPSVPFIVPLSVIICPDRVGVFLDYEACTVSFFNITNHGFLIYKFSHCSFSQPVFPYLNPRKCGVPMTLCSPSS [human TRIM5α, 330-340 = GAPGTRFTFQSFT]	0.696 ± 0.14
MASGILVNVKEEVTCPICLELLTQPLSLDCGHSFCQACLTANHKKSMLDKGESSCPVCRISYQPENIRPNRHVANIVEKLREVKLSPEGQKVDHCARHGEKLLLFCQEDGKVICWLCERSQEHRGHHTFLTEEVAREYQVKLQAALEMLRQKQQEAEELEADIREEKASWKTQIQYDKTNVLADFEQLRDILDWEESNELQNLEKEEEDILKSLTNSETEMVQQTQSLRELISDLEHRLQGSVMELLQGVDGVIKRTENVTLKKPETFPKNQRRVFRAPDLKGMLEVFRELTDVRRYWVDVTVAPNNISCAVISEDKRQVSSPKPQIIYQAPGTRFTFQTFVNFNYCTGILGSQSITSGKHYWEVDVSKKTAWILGVCAGFQPDAMCNIEKNENYQPKYGYWVIGLEEGVKCSAFQDSSFHTPSVPFIVPLSVIICPDRVGVFLDYEACTVSFFNITNHGFLIYKFSHCSFSQPVFPYLNPRKCGVPMTLCSPSS [human TRIM5α, 330-340 = QAPGTRFTFQTFV]	0.292 ± 0.19
MASGILVNVKEEVTCPICLELLTQPLSLDCGHSFCQACLTANHKKSMLDKGESSCPVCRISYQPENIRPNRHVANIVEKLREVKLSPEGQKVDHCARHGEKLLLFCQEDGKVICWLCERSQEHRGHHTFLTEEVAREYQVKLQAALEMLRQKQQEAEELEADIREEKASWKTQIQYDKTNVLADFEQLRDILDWEESNELQNLEKEEEDILKSLTNSETEMVQQTQSLRELISDLEHRLQGSVMELLQGVDGVIKRTENVTLKKPETFPKNQRRVFRAPDLKGMLEVFRELTDVRRYWVDVTVAPNNISCAVISEDKRQVSSPKPQIIYQAPGTLFTFPTFVNFNYCTGILGSQSITSGKHYWEVDVSKKTAWILGVCAGFQPDAMCNIEKNENYQPKYGYWVIGLEEGVKCSAFQDSSFHTPSVPFIVPLSVIICPDRVGVFLDYEACTVSFFNITNHGFLIYKFSHCSFSQPVFPYLNPRKCGVPMTLCSPSS [human TRIM5α, 330-340 = QAPGTLFTFPTFV]	22.3 ± 4.5
MASGILVNVKEEVTCPICLELLTQPLSLDCGHSFCQACLTANHKKSMLDKGESSCPVCRISYQPENIRPNRHVANIVEKLREVKLSPEGQKVDHCARHGEKLLLFCQEDGKVICWLCERSQEHRGHHTFLTEEVAREYQVKLQAALEMLRQKQQEAEELEADIREEKASWKTQIQYDKTNVLADFEQLRDILDWEESNELQNLEKEEEDILKSLTNSETEMVQQTQSLRELISDLEHRLQGSVMELLQGVDGVIKRTENVTLKKPETFPKNQRRVFRAPDLKGMLEVFRELTDVRRYWVDVTVAPNNISCAVISEDKRQVSSPKPQIIYQAPGTLYTFQTFTNFNYCTGILGSQSITSGKHYWEVDVSKKTAWILGVCAGFQPDAMCNIEKNENYQPKYGYWVIGLEEGVKCSAFQDSSFHTPSVPFIVPLSVIICPDRVGVFLDYEACTVSFFNITNHGFLIYKFSHCSFSQPVFPYLNPRKCGVPMTLCSPSS [human TRIM5α, 330-340 = QAPGTLYTFQTFT]	0.508 ± 0.13

Same assay, conditions: library: insertions and deletions

Sequence	enrichment
MASGILVNVKEEVTCPICLELLTQPLSLDCGHSFCQACLTANHKKSMLDKGESSCPVCRISYQPENIRPNRHVANIVEKLREVKLSPEGQKVDHCARHGEKLLLFCQEDGKVICWLCERSQEHRGHHTFLTEEVAREYQVKLQAALEMLRQKQQEAEELEADIREEKASWKTQIQYDKTNVLADFEQLRDILDWEESNELQNLEKEEEDILKSLTNSETEMVQQTQSLRELISDLEHRLQGSVMELLQGVDGVIKRTENVTLKKPETFPKNQRRVFRAPDLKGMLEVFRELTDVRRYWVDVTVAPNNISCAVISEDKRQVSSPKPQITRYQTFVNFNYCTGILGSQSITSGKHYWEVDVSKKTAWILGVCAGFQPDAMCNIEKNENYQPKYGYWVIGLEEGVKCSAFQDSSFHTPSVPFIVPLSVIICPDRVGVFLDYEACTVSFFNITNHGFLIYKFSHCSFSQPVFPYLNPRKCGVPMTLCSPSS [human TRIM5α, 6-codon deletion at 328]	0.747 ± 0.73
MASGILVNVKEEVTCPICLELLTQPLSLDCGHSFCQACLTANHKKSMLDKGESSCPVCRISYQPENIRPNRHVANIVEKLREVKLSPEGQKVDHCARHGEKLLLFCQEDGKVICWLCERSQEHRGHHTFLTEEVAREYQVKLQAALEMLRQKQQEAEELEADIREEKASWKTQIQYDKTNVLADFEQLRDILDWEESNELQNLEKEEEDILKSLTNSETEMVQQTQSLRELISDLEHRLQGSVMELLQGVDGVIKRTENVTLKKPETFPKNQRRVFRAPDLKGMLEVFRELTDVRRYWVDVTVAPNNISCAVISEDKRQVSSPKPQIIYGARGTRYQTGILGSQSITSGKHYWEVDVSKKTAWILGVCAGFQPDAMCNIEKNENYQPKYGYWVIGLEEGVKCSAFQDSSFHTPSVPFIVPLSVIICPDRVGVFLDYEACTVSFFNITNHGFLIYKFSHCSFSQPVFPYLNPRKCGVPMTLCSPSS [human TRIM5α, 8-codon deletion at 338]	0.922 ± 0.48
MASGILVNVKEEVTCPICLELLTQPLSLDCGHSFCQACLTANHKKSMLDKGESSCPVCRISYQPENIRPNRHVANIVEKLREVKLSPEGQKVDHCARHGEKLLLFCQEDGKVICWLCERSQEHRGHHTFLTEEVAREYQVKLQAALEMLRQKQQEAEELEADIREEKASWKTQIQYDKTNVLADFEQLRDILDWEESNELQNLEKEEEDILKSLTNSETEMVQQTQSLRELISDLEHRLQGSVMELLQGVDGVIKRTENVTLKKPETFPKNQRRVFRAPDLKGMLEVFRELTDVRRYWVDVTVAPNNISCAVISEDKRQVSSPKPQIIYGARGTRYQTFVNFNYLGSQSITSGKHYWEVDVSKKTAWILGVCAGFQPDAMCNIEKNENYQPKYGYWVIGLEEGVKCSAFQDSSFHTPSVPFIVPLSVIICPDRVGVFLDYEACTVSFFNITNHGFLIYKFSHCSFSQPVFPYLNPRKCGVPMTLCSPSS [human TRIM5α, 4-codon deletion at 345]	1.57 ± 1.6
MASGILVNVKEEVTCPICLELLTQPLSLDCGHSFCQACLTANHKKSMLDKGESSCPVCRISYQPENIRPNRHVANIVEKLREVKLSPEGQKVDHCARHGEKLLLFCQEDGKVICWLCERSQEHRGHHTFLTEEVAREYQVKLQAALEMLRQKQQEAEELEADIREEKASWKTQIQYDKTNVLADFEQLRDILDWEESNELQNLEKEEEDILKSLTNSETEMVQQTQSLRELISDLEHRLQGSVMELLQGVDGVIKRTENVTLKKPETFPKNQRRVFRAPDLKGMLEVFRELTDVRRYWVDVTVAPNNISCAVISEDKRQVSSPKPQIIYGARGTRYQTFFVNFNYCTGILGSQSITSGKHYWEVDVSKKTAWILGVCAGFQPDAMCNIEKNENYQPKYGYWVIGLEEGVKCSAFQDSSFHTPSVPFIVPLSVIICPDRVGVFLDYEACTVSFFNITNHGFLIYKFSHCSFSQPVFPYLNPRKCGVPMTLCSPSS [human TRIM5α, 1-codon duplication at 339]	81.8 ± 1.3
MASGILVNVKEEVTCPICLELLTQPLSLDCGHSFCQACLTANHKKSMLDKGESSCPVCRISYQPENIRPNRHVANIVEKLREVKLSPEGQKVDHCARHGEKLLLFCQEDGKVICWLCERSQEHRGHHTFLTEEVAREYQVKLQAALEMLRQKQQEAEELEADIREEKASWKTQIQYDKTNVLADFEQLRDILDWEESNELQNLEKEEEDILKSLTNSETEMVQQTQSLRELISDLEHRLQGSVMELLQGVDGVIKRTENVTLKKPETFPKNQRRVFRAPDLKGMLEVFRELTDVRRYWVDVTVAPNNISCAVISEDKRQVSSPKPQIGARGTRYQTFVNFNYCTGILGSQSITSGKHYWEVDVSKKTAWILGVCAGFQPDAMCNIEKNENYQPKYGYWVIGLEEGVKCSAFQDSSFHTPSVPFIVPLSVIICPDRVGVFLDYEACTVSFFNITNHGFLIYKFSHCSFSQPVFPYLNPRKCGVPMTLCSPSS [human TRIM5α, 2-codon deletion at 328]	0.495 ± 0.043
MASGILVNVKEEVTCPICLELLTQPLSLDCGHSFCQACLTANHKKSMLDKGESSCPVCRISYQPENIRPNRHVANIVEKLREVKLSPEGQKVDHCARHGEKLLLFCQEDGKVICWLCERSQEHRGHHTFLTEEVAREYQVKLQAALEMLRQKQQEAEELEADIREEKASWKTQIQYDKTNVLADFEQLRDILDWEESNELQNLEKEEEDILKSLTNSETEMVQQTQSLRELISDLEHRLQGSVMELLQGVDGVIKRTENVTLKKPETFPKNQRRVFRAPDLKGMLEVFRELTDVRRYWVDVTVAPNNISCAVISEDKRQVSSPKPQIIYYGARGTRYQTFVNFNYCTGILGSQSITSGKHYWEVDVSKKTAWILGVCAGFQPDAMCNIEKNENYQPKYGYWVIGLEEGVKCSAFQDSSFHTPSVPFIVPLSVIICPDRVGVFLDYEACTVSFFNITNHGFLIYKFSHCSFSQPVFPYLNPRKCGVPMTLCSPSS [human TRIM5α, 1-codon duplication at 329]	0.692 ± 0.26
MASGILVNVKEEVTCPICLELLTQPLSLDCGHSFCQACLTANHKKSMLDKGESSCPVCRISYQPENIRPNRHVANIVEKLREVKLSPEGQKVDHCARHGEKLLLFCQEDGKVICWLCERSQEHRGHHTFLTEEVAREYQVKLQAALEMLRQKQQEAEELEADIREEKASWKTQIQYDKTNVLADFEQLRDILDWEESNELQNLEKEEEDILKSLTNSETEMVQQTQSLRELISDLEHRLQGSVMELLQGVDGVIKRTENVTLKKPETFPKNQRRVFRAPDLKGMLEVFRELTDVRRYWVDVTVAPNNISCAVISEDKRQVSSPKPQIIYGARGTRYTFVNFNYCTGILGSQSITSGKHYWEVDVSKKTAWILGVCAGFQPDAMCNIEKNENYQPKYGYWVIGLEEGVKCSAFQDSSFHTPSVPFIVPLSVIICPDRVGVFLDYEACTVSFFNITNHGFLIYKFSHCSFSQPVFPYLNPRKCGVPMTLCSPSS [human TRIM5α, 1-codon deletion at 337]	0.699 ± 0.38

From the supplement of paper PMC12230231
